From patent US5858992A, “Non-reducing saccharides, their preparation and use” (Kabushiki Kaisha Hayashibara Seibutsu Kagaku Kenkyujo, priority 1995, dated 1999)

Assays:
[1] = test system: bifid bacteria; test: Influence on growth-promoting activity for bifid bacteria in vivo (healthy volunteers, feces); set-up: species or system human; conditions: for Percentage (%) of bifid bacteria to the total microorganisms: mean value
Protocol: The weight of daily feces before and after the 14-day administration tests, the relative change of feces' weight, the feces' pH, the total number of microorganisms per g of feces, the percentage of the number of bifid bacteria to the total number of microorganisms in feces, and the relative change of the total number of bifid bacteria were measured, followed by calculating the mean value of the five volunteers. Among these measurements, the total number of microorganisms was determined in accordance with the method as reported in "A Color Atlas of Anaerobic Bacteria", pp.53-65 (1984), edited by Tomotari MITSUOKA, published by Kabushiki Kaisha Sobunsha, Tokyo, Japan (1984): The colonies grown in 13 different types of media excluding M10 medium were judged for which genus they belong to and counted for cells. The cell count obtained with a specific medium, which gave the highest number of microorganisms for each genus, was determined to be a real cell count. The total cell count of microorganisms of all the genera was determined to be the total number of microorganisms in each volunteer's feces.

[2] = Solubility in solvent; conditions: water, 0.1N NaOH and 0.1N HCl
[3] = test system: glucosyltransferase; test: Inhibition of insoluble glucan formation by glucosyltransferase from dental caries-inducing microorganism; format: biochemical, Streptococcus sobrinus strain (ATCC 27351)
Protocol: To a mixture solution consisting of one ml of one w/v % sucrose solution, one ml of one w/v % of a test saccharide solution, and 1.5 ml of 0.1M phosphate buffer (pH 6.8) was added 0.5 ml solution containing a crude glucosyltransferase specimen in a total protein content of 10 mg, and the mixture solution was placed in a small test tube which was then fixed and slanted to give a grade 30 degrees and allowed to react at 37° C. for 16 hours. The reaction mixture was transferred gently to another test tube and mixed with a solution obtained by washing carefully with 4 ml water the remaining substances adhered to the inner walls of the small test tube, and the mixture solution was centrifuged to obtain a precipitate as a non-adsorbed glucan. The amounts of the adsorbed- and non-adsorbed glucans thus obtained were respectively quantified by the anthrone-sulfuric acid method, and the total amount of them was regarded as the amount of the formed insoluble glucans. As a control system, a reaction system using water in place of the test saccharide solution, i.e. a reaction system using sucrose as a saccharide, was provided.

[4] = Maillard reaction (coloration with glycine); format: physicochemical
[5] = test system: Streptococcus sobrinus ATCC 27351; test: Acid formation by dental caries-inducing microorganisms; conditions: for pH at each fermentation time (min): living wet cells, 0.02M saccharide, Stephen buffer pH 7.0, 37° C.
[6] = After 10 g orally daily for 14 days, before = 100
[7] = After 10 g orally daily for 14 days

| SMILES | Relative changes of bifid bacteria (total cell count) [1, 6] | Percentage (%) of bifid bacteria to the total microorganisms [1, 7] [%] | pH of feces ([1]; After 10 g orally daily for 14 days, mean ± SD) | Relative changes of bifid bacteria (total cell count) ([1]; […]) | Solubility in solvent [2] | Growth promotion of bifid bacteria when orally administered to human, in words ([1]; oral, human) | Inhibition of the formation of insoluble glucans, in words [3] | Inhibitory percentage (%) on insoluble glucans formation ([3]; sucrose plus test saccharide (one ml of one w/v % each), 37° C., 16 hours, vs sucrose alone) [%] | Maillard reaction, judgement in words [4] | pH reduction / acid fermentation, in words [5] | pH at each fermentation time (min) ([5]; 0 min) | pH at each fermentation time (min) ([5]; 5 min) |
| --- | --- | --- | --- | --- | --- | --- | --- | --- | --- | --- | --- | --- |
| OC[C@H]1O[C@H](OC[C@H]2O[C@H](O[C@H]3O[C@H](CO)[C@@H](O)[C@H](O)[C@H]3O)[C@H](O)[C@@H](O)[C@@H]2O)[C@H](O)[C@@H](O)[C@@H]1O [O-α-D-glucopyranosyl -(1→6)-α-D-glucopyranosyl α-D-glucopyranoside] | 231 | 24.5 | 6.0± 0.4 | 100 | – | – | – | – | – | – | – | – |
| OC[C@H]1O[C@H](OC[C@H]2O[C@H](O[C@H]3O[C@H](CO[C@H]4O[C@H](CO)[C@@H](O)[C@H](O)[C@H]4O)[C@@H](O)[C@H](O)[C@H]3O)[C@H](O)[C@@H](O)[C@@H]2O)[C@H](O)[C@@H](O)[C@@H]1O [α-Isomaltosyl α-isomaltoside, O-α-D-glucopyranosyl -(1→6)-α-D-glucopyranosyl-O-α-D-glucopyranosyl-(1→6) -α-D-glucopyranoside] | 256 | 25.0 | – | 100 | Readily soluble | – | – | – | – | – | – | – |
| OC[C@H]1O[C@H](OC[C@H]2O[C@H](OC[C@H]3O[C@H](O[C@H]4O[C@H](CO)[C@@H](O)[C@H](O)[C@H]4O)[C@H](O)[C@@H](O)[C@@H]3O)[C@H](O)[C@@H](O)[C@@H]2O)[C@H](O)[C@@H](O)[C@@H]1O [α-Isomaltotriosyl α-glucoside, O-α-D-glucopyranosyl-(1→6)-O-α-D-glucopyranosyl-(1→6) α-D-glucopyranosyl α-D-glucopyranoside] | – | – | – | – | – | exert an effect to promote the growth of bifid bacteria | strongly inhibited the formation of insoluble glucans | 83.9 | substantially free from the Maillard reaction | substantially free of acid fermentation | 7.0 | 7.0 |
